Assay results as given in PubChem BioAssay AID686979 (National Center for Advancing Translational Sciences (NCATS), 2013).
The whole screen tested about 420,000 compounds, of which about 50,000 (12%) were called active. The inconclusive results got no clear call from the source; some entries with a clear call stand among them for comparison. Calls come from the whole dose curve; as a rule, active = well fitted inhibition curve with a large enough effect; inconclusive = small, poorly fitted or top-dose-only effect; inactive = flat fitted curve, though single readings scatter. Potencies of inconclusive entries are left out as doubtful fits.

Assay: qHTS for Inhibitors of human tyrosyl-DNA phosphodiesterase 1 (TDP1): qHTS in cells in presence of CPT; note: nearly all actives have a fitted effect of over 55% in size
Conditions: chicken DT40 Tdp1-/-;hTDP1 cells + 20 nM CPT, ATP luminescence, 48 h; series mostly up to 46.2 µM
How it was run: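 Cell growth measured by CellTiter-Glo luminescence after a minimum 48 h, 37 C compound exposure with 20 nM CPT in Tdp1-knockout DT40 cells stably expressing hTDP1, seeded 400/well; qHTS titration format.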
Potency is the fitted concentration of half-maximal effect; tags give direction and shape of the fitted curve.

| Compound | Potency |
| --- | --- |
| COc1ccc(CN2CCN(CC(O)Cn3c4ccccc4c4ccccc43)CC2)cc1 (stereo not given) | inconclusive [inhibitor, single point] |
| O=C(COC(=O)COc1cccc(C(F)(F)F)c1)Nc1ccc(N2CCOCC2)cc1 | inactive |
| S=C(Nc1ccc(Br)cc1Cl)N1CCCC1 | inactive |
| CCOC(=O)C1CCN(C(=O)c2ccc3c(c2)NC(=O)/C(=C\c2ccc(C)cc2)S3)CC1 | inconclusive [inhibitor, single point] |
| CCCNC(=O)COc1ccccc1[N+](=O)[O-] | inactive |
| CC1CCc2c(sc3ncnc(NCc4cccnc4)c23)C1 (stereo not given) | inconclusive [inhibitor, partial curve, poor fit] |
| Cc1nc(C(=O)N2CCCC(C(=O)c3cccc(OC(C)C)c3)C2)cs1 (stereo not given) | active: 10.3 µM |
| CN1OC[C@@H]2CN(C(=O)C(C)(C)C)[C@H](c3ccc(-n4ccnc4)cc3)C[C@@H]21 | inactive |
| CCOC(=O)c1ccccc1NC(=O)COC(=O)CCC(=O)c1ccccc1 | inactive |
| Cn1c(NCc2cccc(Cl)c2)nc2ccccc21 | inconclusive [inhibitor, single point] |
| COCC(C)n1c(COc2ccccc2F)nnc1SCC(=O)Nc1oc(C)c2c(C)n[nH]c(=O)c12 (stereo not given) | inactive |
| CCNC(=O)COC(=O)c1sccc1C | inactive |
| CCOC(=O)c1cccc(NC(=O)c2ccc(NC(=O)C3CCCO3)cc2)c1 (stereo not given) | inconclusive [inhibitor, single point] |
| Cc1ccc(S(=O)(=O)n2[nH]c(=O)cc2N)cc1 | inactive |
| CCCn1c2ccccc2c2cnn(CC(=O)NCCc3ccc(S(N)(=O)=O)cc3)c(=O)c21 | inconclusive [inhibitor, partial curve] |
| CCc1nc2ccc(C(=O)Nc3ccc(OC)c(OC)c3)cn2c1N(C)C(=O)c1cccc(OC)c1 | inconclusive [inhibitor, single point] |
| OC(c1ccc(F)cc1)c1nc(-c2cccc(F)c2)cs1 (stereo not given) | inconclusive [inhibitor, partial curve, poor fit] |
| Cc1ccc2c(c1)c1ncn(CCC3=CCCCC3)c(=O)c1n2C | inconclusive [inhibitor, single point] |
| Fc1ccccc1N1CCN(c2nc3ccccc3n3nnnc23)CC1 | inconclusive [inhibitor, single point] |
| O=C(c1ccc2c(c1)OCO2)[C@@H]1[C@@H]2C(=O)N(C3CCCCC3)C(=O)[C@@H]2C2c3ccccc3C=CN21 (stereo not given in full) | inconclusive [inhibitor, single point] |
